Measurements as given in PubChem BioAssay AID2147 (National Center for Advancing Translational Sciences (NCATS), 2009).
Out of some 230,000 compounds screened, about 3,600 (1.6%) were called active. The shares of active, inactive and inconclusive entries below differ from those in the screen. The call rests on the fitted dose curve; in most records, active means well fitted inhibition curve with a large enough effect (not every such curve was filed as active); inconclusive means small, poorly fitted or top-dose-only effect, or another doubt; inactive means no such curve, though single readings can be large or run the other way. Potencies beside an inconclusive call are fits to weak or partial responses and may not hold up.

Target: Lysine-specific demethylase 4E (Homo sapiens) (UniProt B2RXH2)
Test: qHTS Assay for Inhibitors of Human Jumonji Domain Containing 2E (JMJD2E)
Conditions: JMJD2E catalytic domain, FDH-coupled NADH fluorescence (FDH is formaldehyde dehydrogenase); series mostly up to 57.1 µM
Further: nearly all actives have a fitted effect of over 50% in size.
Potency means the concentration at half of the fitted maximal effect; tags describe the fitted curve by direction and shape.

Sequence of UniProt B2RXH2 (B2RXH2 whole entry, looked up, the tested form may be a part): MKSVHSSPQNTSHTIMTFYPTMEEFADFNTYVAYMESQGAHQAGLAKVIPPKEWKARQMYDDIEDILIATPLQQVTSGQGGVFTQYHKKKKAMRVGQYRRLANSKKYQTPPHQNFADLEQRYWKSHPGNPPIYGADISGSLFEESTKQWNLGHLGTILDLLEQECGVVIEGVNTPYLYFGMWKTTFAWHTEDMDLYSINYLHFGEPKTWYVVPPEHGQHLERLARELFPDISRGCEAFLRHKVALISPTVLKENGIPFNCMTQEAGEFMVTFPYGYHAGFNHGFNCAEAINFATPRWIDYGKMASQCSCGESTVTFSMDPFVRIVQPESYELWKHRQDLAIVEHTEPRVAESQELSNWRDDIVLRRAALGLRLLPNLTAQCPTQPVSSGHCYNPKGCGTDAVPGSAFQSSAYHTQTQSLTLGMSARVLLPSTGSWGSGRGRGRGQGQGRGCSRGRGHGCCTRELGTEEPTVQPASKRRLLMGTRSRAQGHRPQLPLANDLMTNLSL

SMILES | Potency
COC(=O)C(O)(c1ccc(NC(=O)Oc2ccccc2)cc1)C(F)(F)F (configuration not stated) | inactive
COc1cc(C=C(C#N)C#N)cc(O)c1O | active: 11.2 µM
O=C1CC(=O)N(Cc2ccccc2)C(=O)N1CCCCCCN1C(=O)CC(=O)N(Cc2ccccc2)C1=O | inconclusive: 7.94 µM [inhibitor, partial curve]
CC(C)=CCC/C(C)=C/CN(CC(C)O)CC(C)O (configuration not stated) | inconclusive: 28.2 µM [inhibitor, single point]
COc1cc2c(cc1OC)-c1c(OC)c(OC)c(CO)c3c1C(C2)N(C)CC3 (configuration not stated) | inconclusive: 35.5 µM [inhibitor, partial curve]
COP(=O)(OC)c1nc(-c2cccc3ccccc23)oc1NCCc1ccccc1 | inconclusive: 35.5 µM [inhibitor, partial curve]
O=C1NC(=O)C(=Cc2ccc(Sc3ccccc3)o2)C(=O)N1 | inconclusive: 35.5 µM [inhibitor, single point]
CCOC(=O)c1nsnc1NCCCl | inconclusive: 28.2 µM [inhibitor, partial curve]
ON1C2CCCCC2N(O)C1c1ccccc1F (configuration not stated) | inconclusive: 31.6 µM [inhibitor, single point]
CCOC(=O)c1c(C)c(P(=S)(N2CCOCC2)N2CCOCC2)n(C)c1C | inactive
Cc1ccc(N2C(=O)NC(=O)/C(=C/c3ccc(-c4ccc(C(=O)O)c(Cl)c4)o3)C2=O)cc1 | inconclusive: 12.6 µM [inhibitor, partial curve]
Cc1ccccc1N1C(=O)NC(=O)/C(=C\c2cnn(-c3ccccc3)c2)C1=O | inactive
Cc1ccc(S(=O)(=O)N2CCCCC2)cc1NC(=O)CN1CC=C(c2ccccc2)CC1 | inconclusive: 39.8 µM [inhibitor, single point]
C[N+]1(C)CCOC(O)(c2ccc(-c3ccc(C4(O)C[N+](C)(C)CCO4)cc3)cc2)C1 (configuration not stated) | inconclusive: 31.6 µM [inhibitor, single point]
Cc1ccc(OP(=O)(NCc2ccccc2)Oc2ccc(C)cc2)cc1 | inactive
O=C1NC(=S)NC(=O)C1=Cc1cccc2cc3ccccc3cc12 | inactive
c1cncc(C2CCCCN2)c1 (configuration not stated) | inactive
Cc1cccc(C(=O)NC(Oc2ccccc2)C(Cl)(Cl)Cl)c1 (configuration not stated) | inactive
CN(C)Cc1c[nH]c2ccccc12 | inconclusive: 31.6 µM [inhibitor, partial curve]
O=C1CCCc2c1nc(-c1ccccc1)n2O | inconclusive: 25.1 µM [inhibitor, partial curve]
CC1(C)Cc2c(sc3nc4n(-c5ccccc5)c(=O)c(CCC(=O)O)nn4c(=O)c23)CO1 | active: 31.6 µM
Cc1ccc(CN2C(=O)NC(=O)C3(Cc4c(nc5ccccn5c4=O)N4CCCCCC43)C2=O)cc1 (configuration not stated) | inconclusive: 28.2 µM [inhibitor, partial curve]
OCCCc1ccc(O)c(O)c1 | inconclusive: 22.4 µM [inhibitor, single point]

SMILES | Potency
O=C(N/N=C/c1c(O)n(Cc2ccco2)c(=O)[nH]c1=O)c1ccccc1 | inconclusive: 14.1 µM [inhibitor, partial curve]
O=C(N/N=C/c1c(O)n(Cc2ccc(F)cc2)c(=S)[nH]c1=O)c1ccncc1 | inconclusive: 39.8 µM [inhibitor, single point]
Cc1cccc(C2=NCC(=O)N(CC(=O)NCc3ccco3)c3sc4c(c32)CCCC4)c1 | inactive
c1ccc2c(N3CCNCC3)nsc2c1 | inconclusive: 28.2 µM [inhibitor, partial curve]
CN1CCN(c2ccc(N)cc2Cl)CC1 | inconclusive: 35.5 µM [inhibitor, single point]
C[n+]1c2cc(N)ccc2cc2ccc(N)cc21 | inconclusive: 3.16 µM [inhibitor, full curve]
Fc1ccc(Cn2nnnc2C(c2ccc(F)cc2)N2CC=C(c3ccc(F)cc3)CC2)cc1 (configuration not stated) | inconclusive: 7.08 µM [inhibitor, single point]
O=C1NC(=O)N(c2ccccc2)C(=O)/C1=C/c1ccc(Sc2ccccc2)o1 | inconclusive: 25.1 µM [inhibitor, single point]
CCOC(=O)c1c(NC(=O)c2c(N)n(CCCOC)c3nc4ccccc4nc23)sc2c1CCCC2 | inactive
CCCc1cc2c(n1Cc1ccc(C)cc1)C(C)C1CN(C(=O)c3ccccc3)C(C)(C(=O)OC)C21 (configuration not stated) | inconclusive: 31.6 µM [inhibitor, single point]
COc1cc2c(cc1OC)C(C(=O)N(C)C1CCCCC1)C1CCCCN1C2=O (configuration not stated) | inconclusive: 39.8 µM [inhibitor, single point]
CC[C@]1(O)CC(O[C@@H]2CC(N(C)C)C(O)C(C)O2)c2c(cc3c(c2O)C(=O)c2c(O)ccc(O)c2C3=O)C1C(=O)OC (some centres not stated) | inconclusive: 22.4 µM [inhibitor, single point]
C[C@]12[C@H](O)CC3C(CC[C@@H]4C[C@@H](O)CC[C@]34C)[C@@]1(O)CC[C@@H]2C1=CC(=O)OC1 (some centres not stated) | inactive
COC(=O)c1nc(-c2ccc3c(n2)C(=O)C(N)=C(OC)C3=O)c(N)c(-c2ccc(OC)c(OC)c2O)c1C | active: 20 µM
CC(=O)OC1CC(OC(C)=O)[C@]2(C)C(CC(OC(C)=O)[C@]3(C)C2CC[C@@]2(C)C(c4ccoc4)C[C@H]4O[C@]432)C1(C)C (some centres not stated) | inconclusive: 31.6 µM [inhibitor, single point]
Cc1ccc(N2C(=O)NC(=O)C3(Cc4ccccc4N4CCCC43)C2=O)cc1 (configuration not stated) | inconclusive: 35.5 µM [inhibitor, single point]
C=CCN(c1ccc(C(=O)N(CC)CC)cc1)S(C)(=O)=O | inactive
O=C(c1ccc2nc(-c3ccco3)c(-c3ccco3)nc2c1)N1CCC2(CC1)OCCO2 | inconclusive: 15.8 µM [inhibitor, partial curve]
N=c1ccccn1Cc1ccccc1 | inconclusive: 12.6 µM [inhibitor, partial curve]
CC/C(=C(\c1ccc(O)cc1)c1ccc(OCCN(C)C)cc1)c1ccccc1 | inconclusive: 25.1 µM [inhibitor, single point]
O=P(Nc1ccccc1)(Nc1ccccc1)Oc1ccc(Cl)cc1 | inactive
COc1ccc(Cn2c(O)c(/C=N/NC(=O)c3ccccc3)c(=O)[nH]c2=O)cc1 | inactive
CCCCn1c(=O)c(C(=O)Nc2ccsc2C(=O)OC)c(O)c2ccccc21 | inconclusive: 5.01 µM [inhibitor, single point]

SMILES | Potency
CC(CO)NC(=O)C1C=C2c3cccc4[nH]cc(c34)C[C@H]2N(C)C1 (some centres not stated) | inconclusive: 31.6 µM [inhibitor, partial curve]
Nc1ccccc1C(=O)OC1CSC1 | inconclusive: 28.2 µM [inhibitor, partial curve]
CCn1c(O)c(C=Nc2ccc(S(N)(=O)=O)cc2)c(=O)[nH]c1=S | inconclusive: 20 µM [inhibitor, single point]
Cc1ccc(-n2c(O)c(C=NCc3ccco3)c(=O)[nH]c2=S)cc1C | inconclusive: 25.1 µM [inhibitor, single point]
CCOC(=O)c1c(-n2c(C)cc(C=C3C(=O)NC(=S)NC3=O)c2C)sc2c1CCCC2 | inconclusive: 35.5 µM [inhibitor, single point]
Cc1cccc(-n2c(O)c(C=Nc3ccccc3N)c(=O)[nH]c2=O)c1 | inconclusive: 39.8 µM [inhibitor, single point]
CCCC(C)n1[nH]c(=O)c2c1NC(=O)CSC2c1ccc(OC)cc1 (configuration not stated) | inactive
CCCCC(=O)N/N=C/c1c(O)n(CCc2ccc(OC)c(OC)c2)c(=O)[nH]c1=O | active: 22.4 µM
CCOc1ccc(C2C(C#N)=C(N)Oc3c2c(=O)oc2ccccc32)cc1 (configuration not stated) | inconclusive: 28.2 µM [inhibitor, single point]
O=c1[nH]c(=S)[nH]c(O)c1C(c1ccccn1)c1c(O)[nH]c(=S)[nH]c1=O | inconclusive: 31.6 µM [inhibitor, single point]
O=C1CCCC2C3CCCN4CCCC(CN12)C34 (configuration not stated) | inactive
Cc1cccc(CN2CCN(Cc3ccc(Cl)cc3)CC2)c1 | active: 15.8 µM
CCN1C[C@@]2(COC(=O)c3ccccc3N3C(=O)CC(C)C3=O)CC[C@H](OC)[C@]34C5C[C@@H]6[C@@H](OC)C[C@@](O)(C5[C@H]6OC)[C@@](O)(C13)[C@@H](OC)C24 (some centres not stated) | inactive
Cc1cccn2c(NCC3CCCO3)c(C(C)C)nc12 (configuration not stated) | inconclusive: 28.2 µM [inhibitor, partial curve]
O=C(/C=C/c1ccccc1)c1c(O)n(CCc2ccccc2)c(=O)[nH]c1=O | inconclusive: 39.8 µM [inhibitor, single point]
CCC(=O)N1N=C(c2c(O)n(CCc3ccccc3)c(=O)[nH]c2=O)CC1c1ccc(OC)c(OC)c1 (configuration not stated) | active: 20 µM
O=C(c1cc2c(s1)-c1ccccc1OC2)N1CCC2(CC1)OCCO2 | inconclusive: 28.2 µM [inhibitor, partial curve]
Cc1ccc(N2C(=O)NC(=O)/C(=C\c3ccsc3)C2=O)cc1C | inactive
C/C(=N\NC(=O)c1ccccc1)c1c(O)n(Cc2ccccc2)c(=O)[nH]c1=O | active: 25.1 µM
O=c1c2ccccc2nc(/C=C/c2ccco2)n1-c1ccccc1O | inconclusive: 39.8 µM [inhibitor, single point]
COc1ccccc1N1CCN(C2CCN(C(=O)c3cc(OC)c(OC)c(OC)c3)CC2)CC1 | inconclusive: 31.6 µM [inhibitor, single point]
